Measured values as given in the supplement of paper PMC11417369.
± gives the standard deviation of the averaged measurements. Some of the results follow.

Test system: PfAP2-I AP2 domain 3 (GST-tagged)
Assay: gcPBM binding intensity (ln(normalized median fluorescence intensity)); higher = stronger DNA binding
How it was run: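 GST-fused DNA-binding domains of P. falciparum, expressed in E. coli, were applied at about 25 μg on average for 1 h to an Agilent 4 × 180k array of primer-extended double-stranded 36-bp intergenic genomic probes and negative controls. Binding intensity is the highest Masliner-normalised natural-log median intensity across replicate spots of either probe orientation, measured with Alexa488 anti-GST antibody and a 488 nm scan.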

| Sequence | gcPBM binding intensity (ln) |
| --- | --- |
| AACATTATATATTGCAGTACTCCCATATGTTGATAA [XGTACX_site3119] | 9.06 ± 0.11 |
| TATATACCTATATACACACACATATATTATAGATAT [CACACA_site6266] | 7.78 ± 0.44 |
| TTTAGTTGTGAGAATTGTACATATTTTCCTTTTACC [XGTACX_site7291] | 7.88 ± 0.35 |
| TATATATATGAACAATGTACGTATAATATTTTTATT [XGTACX_site7561] | 7.72 ± 0.57 |
| GATCTATACTATAATACACACATTTGATGAATGTAA [CACACA_site6163] | 7.87 ± 0.42 |
| AAAAAAATTAAAAATTAAAATTAAAAATAATATATA [GTGCAC_negctrl_site466] | 6.95 ± 0.61 |
| AATGTATAAATCCATACACACATAAATTTTAATAAT [CACACA_site2363] | 7.59 ± 0.57 |
| TTCATAAAATGTGTCTGTACGTAAATGTATTACACT [XGTACX_site3179] | 7.78 ± 0.5 |
| CTGTCTGCAGATATGGTGCATTTGTAAGATCTTACA [GTGCAC_site9870] | 10.8 ± 0.42 |
| TTTATATTTATGATGGGTACACAAAATTTTACCCAT [XGTACX_site1504] | 7.88 ± 0.16 |
| TAATTTCTTTAGGGGGTGCTTTTATAGTTTTTATTA | 10.21 ± 0.035 |
| ATTATGTGTCCACATGTAAGCTATCTTACTTATATA [CACACA_negctrl_site1227] | 7.87 ± 0.49 |
| ATAGTTACACAATGGTGTACAAGTCAATATATTTCT [XGTACX_site4614] | 7.95 ± 0.33 |
| TACAAAAAAATAAAAAAAATTAAATAAATAAATATA [CACACA_negctrl_site45] | 7.12 ± 0.59 |
| CATATTTGTGGACACACACACATATTTATATATATA [CACACA_site5887] | 8.47 ± 0.42 |
| ACTAAAAAATATATATGTACATAATAATATATTATT [XGTACX_site1260] | 7.88 ± 0.36 |
| ATTTATACTTATGTATGTACATATATACATATGTAT [XGTACX_site3979] | 7.58 ± 0.41 |
| TATCCTTATATTTGCACACACACACTAGAAAATGAA [CACACA_site4714] | 9.92 ± 0.27 |
| AAAAAAAAAAAAAAAAAAAACGAAAAACATCAAAGA [TGCATGCA_negctrl_site78] | 9.22 ± 0.26 |
| ATAATAAAATAACTAGTGCATATTCAAAGGATTCAG | 9.67 ± 0.057 |
| ATATATATTTAACAATGTACTTATTCAGAGAATAAT [XGTACX_site574] | 7.58 ± 0.45 |
| AAAATATTTTTATAATGTACATATAGTTGTATTTGT [XGTACX_site8724] | 7.95 ± 0.5 |
| ATTTTTATTCAGTTCACACACGCTTTAATATTATAT [CACACA_site3465] | 8.3 ± 0.58 |

| Sequence | gcPBM binding intensity (ln) |
| --- | --- |
| CCCTTAATATAAAGCACACATATATATAATATATAT [CACACA_site4439] | 10.2 ± 0.46 |
| AAGTTGAAATAATGTGCACACATTTTTTTTTTTTTT [CACACA_site3368] | 9.38 ± 0.61 |
| ATTAATAAAAAATTTTAAAAAATAAATAAAATAAAA [TGCATGCA_negctrl_site113] | 7.58 ± 0.42 |
| ATAATAAATAAAATAACACACATATATAAATATATA [CACACA_site170] | 7.54 ± 0.3 |
| TAATTATATATATACACACACATACAGACAAATAAA [CACACA_site3412] | 8.15 ± 0.56 |
| GAAATTTGTTATTGCACACAAATTTTTCTTTTTTTA [CACACA_site2339] | 10.14 ± 0.028 |
| TACCATATTTCTTCAAGTACGCATTATGTTAAAAAG [XGTACX_site345] | 7.95 ± 0.32 |
| TACATATATTTTTATACATGCATAACTTAGGACTTT [TGCATGCA_site113] | 7.62 ± 0.58 |
| ATATTTATATATATCATACACACTAATATGTATATT [CACACA_site3409] | 7.52 ± 0.57 |
| TCCTTTTTGAAATGTTGTACTTTTTTTATCTTTCAT [XGTACX_site953] | 7.82 ± 0.65 |
| ATATATATATATAATTGTACATATAATATAATATTA [XGTACX_site5216] | 9.1 ± 0.42 |
| ATATATATTATATATAGTACTTTTTTGCGCAAATAT [XGTACX_site6849] | 8.08 ± 0.44 |
| AACACATGCTTGGTCACACACGTATGCATATTTAAA [CACACA_site5206] | 8.04 ± 0.63 |
| AATATGTTATAAATATGTTATAAATAATAAATAAAT [GTGCAC_negctrl_site135] | 7.74 ± 0.62 |
| TATTTTTTTTTTTTTTTTTTTTTAAAACATATCAAT [CACACA_negctrl_site925] | 7.58 ± 0.46 |
| ATTTTTTTTTTTTTATGTACATATAGGTGCAAATCA [XGTACX_site6748] | 11.3 ± 1 |
| ACAATGTCATTTGCTAGTACGCATATTGGTTGTAAA [XGTACX_site8924] | 7.76 ± 0.24 |
| TAAAAAAAAAAAAAAAGTACACACATACATATAAAT [XGTACX_site3752] | 7.88 ± 0.52 |
| TATATAAATAGACACACACACACCTTATAATTACTA [CACACA_site7828] | 7.88 ± 0.25 |
| AAAAAAAAAAAACACACACACACATACACATACATA [CACACA_site2858] | 7.98 ± 0.37 |
| ATAATAATTAACCTATGTACATAGGAAAGTCATAAA [XGTACX_site4387] | 7.8 ± 0.45 |
| GAAGAAAAATAAAAAGTGCAAAAAAAGTAAAAATTT [GTGCAC_site9897] | 10.12 ± 0.092 |
| TATGTATGTGCTTGTGCGCACCGATAATATAGCCAA | 9.94 ± 0.24 |

| Sequence | gcPBM binding intensity (ln) |
| --- | --- |
| TGCTATAATTTATATACACACAAATATATACGCATA [CACACA_site4096] | 7.72 ± 0.5 |
| TCTCATAGTAGACACACACACACACGCACATATATA [CACACA_site6916] | 8.2 ± 0.51 |
| ACATAAGACACAAATACACACAAAAATATGTAACAA [CACACA_site7836] | 8 ± 0.22 |
| TTTTATGAAAAGTATTGTACGTATAATTTATATGTA [XGTACX_site1639] | 7.86 |
| ACAAATACAAAAAAAGGTACACACATAATATATTTA [XGTACX_site5515] | 7.85 ± 0.16 |
| AATATAAATACTCCTACACACATATATATATATATA [CACACA_site3010] | 9.32 ± 0.35 |
| GACACAAAAAAATAATAATAATAATAATAATAAATA [XGTACX_negctrl_site145] | 7.28 ± 0.41 |
| AAATATTTTATACTTGCACACAAAATATATTAAAAT [CACACA_site8606] | 8.66 ± 0.29 |
| TTTGTTTTTAATTTCGCACACACCTTGTGGAAAAAA [CACACA_site577] | 8.6 ± 0.4 |
| TTCTTATAAATATACACACACAAAATATCTACAATG [CACACA_site6487] | 7.92 ± 0.38 |
| TGTGTAAGATCTTGGATGATGATAAGAATCTACTAG [CACACA_negctrl_site1167] | 7.59 ± 0.75 |
| TTATAAGATTTATGTACACACATATACTCACCTCTA [CACACA_site729] | 7.92 ± 0.38 |
| CCTTAAAATAAGATATGTACGCAAAGGAAAACAAAG [XGTACX_site6057] | 8.4 ± 0.47 |
| TTTGGCTAGTTAGGCCGTACATGTAAATAATATATA [XGTACX_site1138] | 7.96 ± 0.57 |
| TCCATATATGCCTTATGTACATATACCAAATTAACC [XGTACX_site6513] | 8.26 ± 0.33 |
| AATAATAAAGTGAACACACACATATAACATCTATAT [CACACA_site7868] | 7.7 ± 0.52 |
| AATGAATGTAAGAAAATACACACTAGTATAGTAACA [CACACA_site1955] | 7.84 ± 0.67 |
| TTGGAAAAAGTGAAATGTACATATATATTTATTATT [XGTACX_site6946] | 7.74 ± 0.55 |
| GAAGTTTTTTAAAGATGTACTTTTTAAAAATAATCT [XGTACX_site263] | 7.75 ± 0.36 |
| TATTTTATAAATTAATGTACATAAATTATATCTACT [XGTACX_site3625] | 7.67 ± 0.27 |
| ATTACGATAGAGAAATGTACATATATATATGTAAGT [XGTACX_site1200] | 7.91 ± 0.54 |
| TATATATATAAGATTGTGCACATTAAAATGATAGAA [GTGCAC_site9621] | 10.695 ± 0.007 |
| GATCAAAATTATAGAAGTACTTTATATAAATAAAAT [XGTACX_site8161] | 7.71 ± 0.38 |

| Sequence | gcPBM binding intensity (ln) |
| --- | --- |
| TCTATAAAATATAAAAGTACGTATCAATAATTAAAA [XGTACX_site8469] | 7.62 ± 0.42 |
| TCATAAATACATTTTGCATGTAAAATATAGAATACA [TGCATGCA_site755] | 7.54 ± 0.62 |
| AAGTAAAAAAAAAAAAGTACATGTTTATATAAATAT [XGTACX_site4741] | 7.75 ± 0.43 |
| ATAGAATCTGGTAGCTGTACGAGTCGTAGAGTGTAG [XGTACX_site2016] | 8.29 ± 0.5 |
| ATATATTAAAAGGATTAGGAAAAAATATGATTTATC [TGCATGCA_negctrl_site405] | 7.55 ± 0.78 |
| ATAAATTAACATTAAAGTACATTTTAATAAATATTA [XGTACX_site3647] | 7.43 ± 0.3 |
| ATACATATATATAATACACACATAAATGTAACATTT [CACACA_site3518] | 8.06 ± 0.49 |
| ATCCCCATAAAAAATACACACAAATATTTATACATA [CACACA_site1001] | 7.87 ± 0.33 |
| CCATAAAACTATAATACACACATATAGATTAACATA [CACACA_site7849] | 7.82 ± 0.33 |
| AAAATTGGTGAAAATGAAAATATGATTATATGTATA [XGTACX_negctrl_site505] | 7.41 ± 0.83 |
| TGATAAGAAAAAGACTTTTCCTTCTTACTTTCTATG [CACACA_negctrl_site782] | 7.57 ± 0.54 |
| AATAATGTTTTTATATCACACACAAATATTAAATGA [CACACA_site8074] | 7.76 ± 0.55 |
| CAAAATAAATAATTTGGTACACATAAAAAAAAAAAA [XGTACX_site8380] | 8.01 ± 0.57 |
| AAAAAAAAAACATACACACATACATACATATATATT [CACACA_site949] | 7.51 ± 0.2 |
| ATGAAGAATTTATATTGTACCCATTTTTATGTAAAT [XGTACX_site2528] | 7.89 ± 0.52 |
| CGAAAAAGTGATATAGTGCAAAATTTTCATTTCTCT | 9.805 ± 0.049 |
| TGCTGTATATTTTTCTGTACACATTTATATATTCCA [XGTACX_site6244] | 8.12 ± 0.46 |
| TTTTTTTTTCTTCTTTTCAAATTTAAGAAATTATAA [CACACA_negctrl_site18] | 7.55 ± 0.57 |
| TTGTTATTATATTACGCATGCATCATTTATTTGCAC [TGCATGCA_site525] | 9.71 ± 0.22 |
| AAAGGGAATTATGGCTGTACGCATTTTATAAATAGC [XGTACX_site5878] | 7.93 ± 0.44 |
